Hit rate of the full screen: of about 310,000 compounds, about 14,000 (4.5%) showed an effect of 50% or more. The effect is printed as a negative number. This is one part of the list.
biological target: human ether-à-go-go-related gene (hERG) potassium channel (human, UniProt Q12809); experiment: primary screen, population patch clamp on CHO cells stably expressing hERG
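Also: peak tail current of the secondary pulse compared with the same well before compound.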

Chain of human ether-à-go-go-related gene (hERG) potassium channel (Q12809 whole entry, looked up): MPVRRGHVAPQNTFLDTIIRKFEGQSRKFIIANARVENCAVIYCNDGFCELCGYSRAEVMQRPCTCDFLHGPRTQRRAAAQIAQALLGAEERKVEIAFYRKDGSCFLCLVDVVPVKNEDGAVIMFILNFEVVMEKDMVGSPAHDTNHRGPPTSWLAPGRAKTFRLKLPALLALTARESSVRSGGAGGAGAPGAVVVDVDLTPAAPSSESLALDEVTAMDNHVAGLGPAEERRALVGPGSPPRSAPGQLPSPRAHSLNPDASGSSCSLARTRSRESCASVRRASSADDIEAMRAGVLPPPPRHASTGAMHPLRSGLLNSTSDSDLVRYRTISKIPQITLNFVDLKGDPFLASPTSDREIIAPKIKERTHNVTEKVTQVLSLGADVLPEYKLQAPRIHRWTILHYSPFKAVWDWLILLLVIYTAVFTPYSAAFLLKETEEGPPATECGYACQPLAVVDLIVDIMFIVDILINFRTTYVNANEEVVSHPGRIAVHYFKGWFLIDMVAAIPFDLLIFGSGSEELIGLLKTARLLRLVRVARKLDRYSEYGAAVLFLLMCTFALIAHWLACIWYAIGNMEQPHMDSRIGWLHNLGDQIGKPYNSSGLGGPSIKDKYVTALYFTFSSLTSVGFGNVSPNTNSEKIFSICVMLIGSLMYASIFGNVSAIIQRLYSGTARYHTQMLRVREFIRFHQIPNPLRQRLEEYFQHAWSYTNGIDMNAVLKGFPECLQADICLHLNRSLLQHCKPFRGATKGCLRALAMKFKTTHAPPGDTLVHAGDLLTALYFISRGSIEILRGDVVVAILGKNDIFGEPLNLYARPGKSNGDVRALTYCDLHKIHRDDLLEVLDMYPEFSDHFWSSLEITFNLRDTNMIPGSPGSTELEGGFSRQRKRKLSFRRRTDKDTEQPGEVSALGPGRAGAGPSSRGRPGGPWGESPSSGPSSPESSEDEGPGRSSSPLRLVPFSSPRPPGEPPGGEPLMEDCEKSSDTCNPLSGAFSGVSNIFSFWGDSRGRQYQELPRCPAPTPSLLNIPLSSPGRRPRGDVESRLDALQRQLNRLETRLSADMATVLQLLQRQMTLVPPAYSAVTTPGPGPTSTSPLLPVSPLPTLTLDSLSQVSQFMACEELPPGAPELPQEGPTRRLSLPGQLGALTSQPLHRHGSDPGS

Row | Compound | hERG current change (%, negative = inhibition) at 10uM [%]
1 | CC(C)c1nnc(NC(=O)CCC(=O)NCC2CCCO2)s1 (stereo not drawn) | -7.37
2 | CC(=O)c1cccc(Oc2cc(NN3CCCCC3)c([N+](=O)[O-])cc2[N+](=O)[O-])c1 | -12.8
3 | CC(=O)NC1C(=O)N(CCc2ccccc2)c2ccccc21 (stereo not drawn) | 6.92
4 | O=C(COc1ccc([N+](=O)[O-])cc1)Nc1cc(S(=O)(=O)N2CCCCC2)ccc1N1CCCCC1 | 1.79
5 | CCOC(=O)c1nc(-c2ccc(OC)c(OC)c2)no1 | 1.97
6 | CCOC(=O)COc1ccc(/C=C2\NC(=S)N(CC)C2=O)cc1 | 2.08
7 | COc1ccc(S(=O)(=O)Nc2ccccc2OC)cc1NC(=O)Cc1cccs1 | -4.21
8 | C/C(=N\NC(=O)CN(c1ccccc1)S(=O)(=O)c1ccccc1[N+](=O)[O-])C(C)(C)C | -15
9 | CCOC(=O)c1cnc(-n2nc(C)cc2C)nc1NNc1cc(C)nc(-c2ccccc2)n1 | -5.89
10 | Cc1ccc(/C=N/Nc2ccc3ccccc3n2)o1 | -47.4
11 | CC(=O)n1cc([C@@H]2C=C(C(=O)O)O[C@H](OCc3ccc(CO)cc3)C2)c2ccccc21 | 0.587
12 | Cc1ccc2nc(SCC(=O)N3CC(C)OC(C)C3)nc(=O)n2c1 (stereo not drawn) | -13
13 | Cc1cccc(Cn2c(N3CCc4ccccc4C3)nc3c2c(=O)[nH]c(=O)n3C)c1 | -4.89
14 | CCN(C(=O)CN1CCN(c2ccc(OC)cc2)CC1)c1c(N)n(Cc2ccccc2)c(=O)[nH]c1=O | -2.39
15 | CC(C)(C)c1cc(OS(C)(=O)=O)ccc1O | 12.8
16 | O=C(Cc1ccccc1F)OCC(=O)N1CCN(C(=O)c2ccco2)CC1 | -22.6
17 | O=C(OCc1nc2ccccc2s1)c1cccc(N2C(=O)CCC2=O)c1 | 15.7
18 | CC1=CC(C)(C)n2c(O)c(N=NC(N)=S)c3c(C)ccc1c32 | 14.8
19 | CN1C(=O)/C(=C/c2ccco2)SC1=Nc1cccc(C(=O)O)c1 | 17.6
20 | COc1cccc(NS(=O)(=O)c2ccc(OC)c(OC)c2)c1 | -9.37
21 | CCn1c2ccc(F)cc2c2nnc(SCCN3CCCCC3)nc21 | -61
22 | O=C(/C=C/c1ccco1)NCCc1ccccc1 | 10.9

Row | Compound | hERG current change (%, negative = inhibition) at 10uM [%]
23 | CC(C)N1C(=O)S/C(=C\c2ccc(-c3ccc(Cl)c(C(=O)O)c3)o2)C1=O | 28.5
24 | Cc1cc(C(F)F)n2ncc(C(=O)NCc3ccccc3C(F)(F)F)c2n1 | 9.36
25 | COc1cccc(C(C)NC(=O)Cc2cccs2)c1 (stereo not drawn) | 16.1
26 | CCOC(=O)C[n+]1c(C)csc1C.[Br-] | 9.24
27 | Cc1cccnc1-n1c(CN2C(=O)c3ccccc3C2=O)nc2ccccc2c1=O | 4.46
28 | COc1cccc(-n2c(CN3CCN(c4ccccc4)CC3)nc3ccc([N+](=O)[O-])cc3c2=O)c1 | -8.34
29 | C=CCN(c1cccc(C(F)(F)F)c1)S(=O)(=O)c1cccc(C(=O)OCC(=O)NC)c1 | -39.3
30 | Cc1ccccc1C(=O)NCCNC(=O)c1ccco1 | 17.2
31 | O=C(CSc1nccn1Cc1ccco1)Nc1ccc(F)cc1 | 12.5
32 | Cc1ccc(SCCNC(=O)c2ccc(C)c(S(=O)(=O)Nc3ccccc3C)c2)cc1 | -5.49
33 | NC(=O)c1ccccc1NC(=O)CCN1C(=O)c2ccccc2C1=O | -3.56
34 | CCc1nnc(NC(=O)CSc2nc3cccnc3n2Cc2ccccc2)s1 | 2.43
35 | CCCCNC(=O)[C@H]1C[C@H]1[C@@H](O)[C@H](CO)NC(=O)[C@H](CC(C)C)NC(=O)OC(C)(C)C | 16.1
36 | CCCN1CCN(c2ccc([N+](=O)[O-])cc2C#N)CC1 | -72
37 | Cc1ccc(OCCC(=O)OCC(=O)Nc2cc(S(=O)(=O)N(C)C)ccc2C)cc1 | -26.6
38 | CC1CC(C)(C)N(C(=O)CSc2ccc(-c3ccc(F)cc3)nn2)c2ccccc21 (stereo not drawn) | -2.49
39 | COc1ccc(CNC(=O)CN(CCC(C)C)S(=O)(=O)c2ccc3c(c2)OCCO3)cc1 | -7.73
40 | CC(/C=N/n1c(-c2cccnc2)n[nH]c1=S)=C\c1ccco1 | 0.108
41 | CCN(CC)CCNc1nc(-c2ccco2)c2c(c1C#N)CC(C)(C)OC2 | -62.6
42 | COC(=O)Cc1n[nH]c(=S)[nH]c1=O | 24.4
43 | CCCCn1c(-c2ccc(F)c(F)c2)nc2cc3[nH]c(=O)c(C(C)C)nc3cc21 | 5.72
44 | Cc1cc(NC(=O)c2nn(C)c(C)c2Br)no1 | 14.4

Row | Compound | hERG current change (%, negative = inhibition) at 10uM [%]
45 | Cc1ccc2[nH]c(=O)c(CN(Cc3cccs3)Cc3nnnn3CC3CCCO3)cc2c1 (stereo not drawn) | -22.4
46 | COc1ccccc1C(=O)NCCC(=O)Nc1ccc(S(=O)(=O)Nc2ncccn2)cc1 | -8.99
47 | O=C1CC(N2CCN(S(=O)(=O)c3ccc([N+](=O)[O-])cc3)CC2)C(=O)N1c1ccccc1F (stereo not drawn) | -46.6
48 | CCCC/C=C/C(NC(=O)c1ccc(-c2ccccc2)cc1)c1ccccc1 (stereo not drawn) | 0.293
49 | CCOc1ccc(NC(=O)Cn2cc(C(=O)c3ccco3)c3ccccc32)cc1 | -11.4
50 | COc1nc(-c2ccccc2)cc(-c2ccc3c(c2)OCO3)c1C#N | 1.15
51 | Cc1nc(SCc2ccc([N+](=O)[O-])cc2)n[nH]1 | 2.06
52 | CCC(Sc1nnnn1C)C(=O)Nc1ccc(C(C)=O)cc1 (stereo not drawn) | 3.53
53 | O=C(CN1CCCC1)Nc1ccc(Br)cc1[N+](=O)[O-] | 3.99
54 | COc1ccccc1OCCCn1cc(C#N)c2ccccc21 | -11.8
55 | CCOC(=O)c1c(CSc2ccc(C)cc2)oc2ccc(O)cc12 | -1.59
56 | Cc1ccc(S(=O)(=O)NCC(C)n2cncn2)cc1 (stereo not drawn) | -0.384
57 | COc1ccc(C(CNC(=S)NCc2ccccc2)N2CCCC2)cc1 (stereo not drawn) | -28.4
58 | C#CCNC(=O)C1=C[C@@H](C(C)(C)C)C[C@@H](OCc2ccc(CO)cc2)O1 | 10.8
59 | CCn1c(COc2cccc(C)c2)nnc1SCC(=O)N1CCCC1 | -14.9
60 | CCCCC(C(=O)N/N=C/c1ccccn1)C(=O)N/N=C/c1ccccn1 | 8.01
61 | Cc1nnc(SCC(=O)N2CCCc3ccccc32)[nH]c1=O | 9.48
62 | O=[N+]([O-])c1ccc(C(O)CN2CCOCC2)cc1 (stereo not drawn) | 18.5
63 | Cc1noc(NS(=O)(=O)c2ccc(NC(=O)Cc3ccc([N+](=O)[O-])cc3)cc2)c1C | 13.3
64 | COc1ccc(N2CC(C)Cn3c2nc2c3c(=O)n(Cc3ccccc3)c(=O)n2C)c(OC)c1 (stereo not drawn) | -39.9
65 | COc1ccc(-c2ccc(C#N)c(SCC(=O)OCc3ccccc3)n2)cc1OC | -2.31
66 | NNC(=O)c1cc2ccccc2cc1NS(=O)(=O)c1ccccc1 | 13.1

Row | Compound | hERG current change (%, negative = inhibition) at 10uM [%]
67 | O=c1[nH]c(=O)n(C2CCCCCC2)c(O)c1C=NCc1cccnc1 | -9.79
68 | Cc1ccc(Cn2cnc3ccccc32)cc1 | 3.41
69 | CCC(NC(=O)C1CCCC1)c1ccccc1 (stereo not drawn) | 17.9
70 | Cc1nc2ccc(NC(=O)c3ccco3)cc2nc1C | 2.94
71 | Cc1ccc(-c2ccc(S(=O)(=O)N3CCCC3)cc2)cc1 | 23.9
72 | COC(=O)c1ccc(Oc2nc(NC(C)(C)C)nc(N3CCOCC3)n2)cc1 | -16.1
73 | O=C(Nc1nnc(S(=O)(=O)N2CCN(c3ccc(F)cc3)CC2)s1)c1ccco1 | 14.9
74 | O=C(Cn1nc(-c2ccccc2)oc1=O)OCC(=O)c1ccc(F)c(F)c1 | 3.18
75 | Clc1ccc(-c2cn(-c3ccc(Cl)cc3)c3[n+]2CCCCC3)cc1.[Br-] | -52.7
76 | O=C(NCCN1CCOCC1)c1ccc([N+](=O)[O-])cc1[N+](=O)[O-] | -0.151
77 | Cc1cc(Nc2cccc(Br)c2)c2ccccc2n1 | -86.2
78 | CC(Oc1ccc(Cl)cc1Cl)C(=O)Nc1ccncc1 (stereo not drawn) | -43.9
79 | CCOC(=O)C1CCN(C(=O)c2cc3c(-c4ccc(OC)c(OC)c4)nn(C)c3s2)CC1 | -17
80 | Oc1cccc(-c2nc3ccccc3s2)c1 | -3.6
81 | COC(=O)c1sccc1N/N=C/c1cccc(Oc2ccccc2)c1 | -7.09
82 | CC1(c2ccc3c(c2)OCO3)NC(=O)N(CC(=O)Nc2ccc(N3CCOCC3)cc2)C1=O (stereo not drawn) | 14.1
83 | O=C(c1ccc(Cl)cc1[N+](=O)[O-])N1CCc2ccccc2C1 | 4.37
84 | N#CC1=C(N)Oc2nc(-c3ccccc3)[nH]c2C1c1cccnc1 (stereo not drawn) | -1.47
85 | CN(C1CCCCC1)C(CNS(=O)(=O)c1ccc(Cl)cc1)c1ccccc1 (stereo not drawn) | 11.9
86 | O=C1NCCCC1C(=O)N/N=C/c1ccccc1O (stereo not drawn) | 9.69
87 | O=C(c1ccccc1)n1c(=O)cc[nH]c1=O | 12.1
